± gives the standard deviation of the averaged measurements. This is one part of the list.
Each sequence was assayed on PfAP2-LT AP2 domain (GST-tagged) (assay: gcPBM binding intensity (ln(normalized median fluorescence intensity)); higher = stronger DNA binding).
Method in brief: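 GST-fused DNA-binding domains of P. falciparum, expressed in E. coli, were applied at about 25 μg on average for 1 h to an Agilent 4 × 180k array of primer-extended double-stranded 36-bp intergenic genomic probes and negative controls. Binding intensity is the highest Masliner-normalised natural-log median intensity across replicate spots of either probe orientation, measured with Alexa488 anti-GST antibody and a 488 nm scan.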

Row | Sequence | gcPBM binding intensity (ln)
1 | ATAAATTTTTTTTTTTTTTTTTTTCTTTTTCTTTGT [CACACA_negctrl_site1231] | 8.38 ± 0.57
2 | AAATAATTTTTATTTGTACACACATACATATATATT [CACACA_site8240] | 9.17 ± 0.47
3 | TAAATAAAGATATATACACACATATTTATATTTATA [CACACA_site6431] | 8.76 ± 0.36
4 | CATCATATAAATTCAAGTACAAGAAAAAGTAATATA [XGTACX_site2383] | 8.72 ± 0.51
5 | ACAAAATTGAAATTCACACAAAAACTATACTTTTTA [CACACA_site4638] | 8.48 ± 0.45
6 | ATATCTACTTTTTTATGTACGAAAAAAATACGGATT [XGTACX_site8937] | 8.6 ± 0.38
7 | TATGATATAATATACACACATACATATATATATATA [CACACA_site510] | 9.58 ± 0.23
8 | TTATTCATAAAAACAAAAAACAAAAATGAAATAGGA [CACACA_negctrl_site1123] | 8.64 ± 0.54
9 | TATTATGTCTAAAATAACATATTAATATATTATTTC [CACACA_negctrl_site285] | 8.47 ± 0.52
10 | AGAGTTCTCCTATGCACACAAAAAACTTTCATTTAT [CACACA_site4193] | 8.86 ± 0.37
11 | TTAATATTTTATTTCACACACATAAATGCCCCAAAC [CACACA_site1887] | 9.15 ± 0.49
12 | TCCTCTTATAATTCGTGTCCACATATATCATACAAT [XGTACX_site1523] | 8.85 ± 0.5
13 | AAAAAATACATACATACACACATATATATATATATA [CACACA_site913] | 9.99 ± 0.3
14 | ATAAAACAAATGAGTACACACACATAAAAATTGAAA [CACACA_site7949] | 9.38 ± 0.38
15 | TACGGATATATATATTGTACATATATATAATATATA [XGTACX_site3156] | 8.7 ± 0.38
16 | TTTTTTTTTTTTTTTGTGCACAATATAATTTTTAAT [GTGCAC_site9747] | 8.7 ± 0.4
17 | TATATATATATTAATAGTACATATTATGTAAGCCTA [XGTACX_site2826] | 8.96 ± 0.45
18 | TTTCAGACAAAAAAAAAAAAAAAAAAGAGGAGAATA [CACACA_negctrl_site254] | 8.39 ± 0.47
19 | TTATAATATATATCTGCATGTTGCTTTGGGGCTTTA [TGCATGCA_site712] | 8.81 ± 0.38
20 | TATATTAAACAATATACACACATTAATGTAGACATA [CACACA_site8889] | 8.94 ± 0.37
21 | GAAAATTCTTAAGGCACACACATATAAGATATATAC [CACACA_site6410] | 9.14 ± 0.36
22 | AATAAAAAAAAAAAAAAAAAAAAAAACCTGAGGAGT [CACACA_negctrl_site1140] | 8.56 ± 0.56

Row | Sequence | gcPBM binding intensity (ln)
23 | AACCTTTTAAGAGTTGCACACGTACAAAAAAAAAAA [CACACA_site9159] | 8.88 ± 0.45
24 | TTTAAGCAAAGACACACACACATATTTATATTTATA [CACACA_site6295] | 9.49 ± 0.28
25 | AAACATTTATACAAAGCACACAATTTTTAACTTTTA [CACACA_site2627] | 8.7 ± 0.42
26 | TATCTTCATTGTTGACGTACAGTATTTCTAAACGTT [XGTACX_site3439] | 8.83 ± 0.44
27 | TTTTTTCTTTTTTTTTTTAATTATAAACATGATATT [GTGCAC_negctrl_site144] | 8.36 ± 0.6
28 | TAAATATATATAACATGTACATAAAATATATATATA [XGTACX_site4431] | 8.86 ± 0.39
29 | TACACATACAGACATACACACATACACATATACACA [CACACA_site6918] | 9.85 ± 0.23
30 | AAAAAAAAAAAAAACACACACACACGCACATATACA [CACACA_site7288] | 10.1 ± 0.3
31 | CTATGAACACACACATGTACATATATTAACTCGCTA [XGTACX_site8805] | 9.28 ± 0.28
32 | CCACTTGTGTAATGTTGTACAAAAATAAATATATTT [XGTACX_site4598] | 8.72 ± 0.46
33 | ATAATTAAAAATAATATATATATAATATGATATTAT [GTGCAC_negctrl_site194] | 8.45 ± 0.45
34 | CGAGCAAGACGGGGTGCACACAAACTAATATGCCGA [CACACA_site7936] | 9.55 ± 0.5
35 | TACCTTTATTAATAAAGTACATTAATCTGTGTATAC [XGTACX_site8720] | 8.73 ± 0.45
36 | ATTATTATGTAGAAGGTGCTATGTTCTATAAATATA [GTGCAC_site9545] | 8.73 ± 0.51
37 | CATAAAAATGAACATACACACATATATATATATATA [CACACA_site2498] | 9.8 ± 0.17
38 | TTGCTTTCTTTTTTTTGTACTCATATCTACTATCAT [XGTACX_site7711] | 8.96 ± 0.71
39 | AGGCCTTTTAGTATTTCACACACGTAAATGCGTATA [CACACA_site1108] | 9.1 ± 0.33
40 | AAAAAAAAAAAAATGTGGACACAATTGTGTGTTTGT [XGTACX_site3563] | 9.22 ± 0.6
41 | TTTTTGTTAAAATAAATATTATAAATATATTAATAT [TGCATGCA_negctrl_site239] | 8.03 ± 0.47
42 | TACATATTTTATAGCACACAAATAATAATATGTAGT [CACACA_site688] | 8.93 ± 0.33
43 | GTTGTGGAAAGAAGTTGTACATAAAATATTATATAA [XGTACX_site4352] | 8.6 ± 0.49
44 | GTATATATCTAAAAATATATATATATATATATATAT [CACACA_negctrl_site788] | 9.38 ± 0.29

Source: the supplement of paper PMC11417369
